We go through 55 molecules from ChEMBL document CHEMBL4888484, “Replenishing the malaria drug discovery pipeline: Screening and hit evaluation of the MMV Hit Generation Library 1 (HGL1) against asexual blood stage Plasmodium falciparum ,using a nano luciferase reporter read-out” (2022).

About 540 (0.36%) of roughly 150,000 compounds showed an effect of 50% or more. This is one part of the list.

The test system of this assay is Plasmodium falciparum. Briefly: Primary screen in NF54 nanoGlo assay, in single point, at 2uM, 72h; a lower Z score goes with more inhibition. The settings on record: timepoint 72 hour. It is filed as functional, Erythrocyte.
As to `CCCc1cc(C(=O)N2CC[C@]3(OC)CC[C@@H](OCCO)C[C@H]23)no1`, the “% Inhibition” value is recorded as -6% and the Z score came out at 0.79.
Take `C#CCN(CC1CC1)C(=O)c1cnn2cc(Br)cnc12`: the “% Inhibition” value is given as -6% and the Z score turned out to be 0.6.
On to `CCOc1ccc(CCN2C(=O)CC[C@@]2(C)C(=O)NCc2ccccc2)cc1OCC`, for which the “% Inhibition” value was -2% and the Z score is 0.2.
The like results for `O=C(NCCc1cn2c(n1)CCCC2)c1ccncc1` were, in that order, -7% and 1.47.
The like results for `Cc1[nH]nc(CN(C)CCN(C)C2CCCC2)c1Cl` were, in that order, -3% and 0.47.
For `CCn1c(COC(=O)c2cnc(C)cn2)nc2cc(S(=O)(=O)N(C)C)ccc21`, the “% Inhibition” value is listed as -15% and the Z score was determined as 2.38.
As to `CCOC(=O)N(C)CC(=O)NC1CCCC1`, the “% Inhibition” value was -3% and the Z score was found to be 0.45.
The matching figures for `CC(C)(C)C[C@@H](CO)NC(=O)c1ccc(C2CCC2)cc1`: -8% and 0.88.
The like results for `Cc1csc(Cn2ccnc2-c2ccc(C(=O)O)cc2)n1` were, in that order, 1% and -0.13.
Turning to `O=C(Cn1cccn1)N1CCC[C@H](Oc2ncccn2)C1`, the “% Inhibition” value is reported as 7% and the Z score was -0.94.
With `COc1ccc(OC)c2c1cc1n2C[C@@](C)(C(=O)NC2CCCC2)N(CCN2CCCC2)C1=O`, the “% Inhibition” value is listed as 1% and the Z score is on record as -0.14.
The like results for `CC[C@H]1CN(S(=O)(=O)c2ccc(OC)cc2)CC[C@H]1CC(=O)NCc1ccccc1` were, in that order, -18% and 2.85.
The like results for `COCCCn1ccc(NC(=O)NCCc2sc(C)nc2C)n1` were, in that order, 1% and -0.16.
The matching figures for `CC(C)(C)c1cc(C(=O)N2CCC(O)(C(F)F)CC2)no1`: -12% and 1.89.
Take `CCC(CC)(CNC(=O)c1cc(S(N)(=O)=O)oc1Cl)OC`: the “% Inhibition” value is reported as -1% and the Z score is 0.24.
With `COc1ccc(CC(=O)NCC2(O)CCCC2)cc1`, the “% Inhibition” value is on record as -9% and the Z score turned out to be 1.6.
Regarding `Cc1nc(CN(C)Cc2ncon2)sc1C`, the “% Inhibition” value is recorded as -3% and the Z score is reported as 0.55.
`COC[C@@H]1CCC[C@@H]1NC(=O)Cc1cccc(O)c1`: the “% Inhibition” value amounted to 4% and the Z score is recorded as -0.56.
The matching figures for `CCN1CCC(NC(=O)c2ccc3ccccc3c2)CC1`: -14% and 1.68.
On to `CCN=C(NCC)NCCc1nc(C)c(C)s1`, for which the “% Inhibition” value turned out to be 0% and the Z score stood at 0.07.
With `O=C(CN(C(=O)COc1ccccc1)C1CC1)N(Cc1ccco1)C[C@H]1CCCO1`, the “% Inhibition” value is -13% and the Z score is on record as 1.32.
The like results for `O=C(c1cc(-c2ccccc2)n[nH]1)N1CCC(N2CCC(Oc3ccccc3F)CC2)CC1` were, in that order, -12% and 1.48.
In the case of `Cc1c(CN2C[C@H]3CCC[C@@H](C2)N(C)C3)[nH]c2ccccc12`, the “% Inhibition” value is listed as -7% and the Z score is listed as 1.
As for `CO[C@H]1CCOC[C@@H]1NC(=O)c1ccccc1Cc1ccc(C)c(F)c1`, the “% Inhibition” value was 4% and the Z score is given as -0.85.
The like results for `COc1ccc(-c2noc(-c3cccnc3N3CCN(c4ccccc4F)CC3)n2)cc1` were, in that order, -5% and 0.71.
The like results for `CCN(CCC#N)C(=O)CNc1cc(NC(C)=O)c(F)cc1F` were, in that order, -1% and 0.1.
Turning to `O=c1c(NCc2nccn2C2CC2)cccn1CC(F)(F)F`, the “% Inhibition” value is reported as -3% and the Z score came out at 0.62.
The matching figures for `CCS(=O)(=O)N1CCCCCCN(C)C(=O)CC1`: 3% and -0.42.
For the molecule `O=C(CCc1ccccc1)Nc1ccc(C(=O)c2ccncc2)cc1`, the “% Inhibition” value is reported as -9% and the Z score was determined as 1.01.
The matching figures for `C[C@@H](CC(N)=O)Nc1ncc(F)c(-c2ccsc2)n1`: -6% and 1.19.
For `CC(=O)Nc1sc2c(c1CN1CCN(c3ccccc3)CC1)CCCC2`, the “% Inhibition” value is -9% and the Z score was found to be 0.87.
In the case of `Cc1nc(C)c(C(=O)N(C)CCN(C)C(=O)OC(C)(C)C)o1`, the “% Inhibition” value was -7% and the Z score was found to be 0.91.
On to `Cc1cccc(CN2[C@H](CNC(=O)C3CCOCC3)CN(C)C(=O)[C@@H]2C)c1`, for which the “% Inhibition” value is listed as 8% and the Z score is listed as -0.99.
The matching figures for `O=C1COc2ccc(S(=O)(=O)N3CCC[C@H]3C(=O)NC3CCCCCC3)cc2N1`: -2% and 0.25.
In the case of `O=C(Nc1ncc(Cc2ccccc2)s1)c1ccccc1OCc1ccccc1`, the “% Inhibition” value is recorded as -10% and the Z score was 1.16.
The like results for `O=C(NCc1csc2ncnn12)c1ccc(Oc2nccs2)cc1` were, in that order, -1% and 0.16.
The matching figures for `O=C1c2ccc(O)cc2C(=O)N1c1ccc(N(c2ccccc2)c2ccc(N3C(=O)c4ccc(O)cc4C3=O)cc2)cc1`: 8% and -1.03.
The like results for `CCN(c1ccccc1)S(=O)(=O)c1cccc(C(=O)N(C)Cc2ccccc2OC)c1` were, in that order, -1% and 0.27.
Take `O=C(N[C@@H](Cc1ccccc1)C(=O)O)c1ccc(Cl)cn1`: the “% Inhibition” value is -10% and the Z score was determined as 1.28.
`CC(C)Cn1ncc(C(=O)OCc2ccccn2)c1C(F)F`: the “% Inhibition” value is given as -11% and the Z score stood at 1.53.
With `CC[C@H]1C(=O)NCCN1C(=O)Nc1ncc(CC(C)C)s1`, the “% Inhibition” value is on record as -9% and the Z score is given as 1.37.
The like results for `COCCN1CCC(CN(Cc2ccncc2)C(=O)[C@H]2CC23CCCC3)CC1` were, in that order, 2% and -0.28.
The matching figures for `O=C1C[C@]2(CCc3ccccc32)C(=O)N1Cc1ccc(CO)cc1`: 1% and -0.13.
The like results for `Cc1cnc(C2CN([C@@H](C)C(C)C)C2)n1Cc1cccnc1` were, in that order, -6% and 0.77.
Turning to `COc1ccc(-c2cc3n(n2)CCCN(C(=O)Nc2ccc(C)c(F)c2)C3)cc1OC`, the “% Inhibition” value is listed as -6% and the Z score is 0.68.
For the molecule `COc1ccccc1Nc1ncccc1C(=O)NCc1ccc(CS(N)(=O)=O)cc1`, the “% Inhibition” value was found to be 6% and the Z score is -0.88.
For `COc1cc(-c2cc(-c3scnc3C)nc(N)c2C#N)c(Cl)cc1O`, the “% Inhibition” value stood at 4% and the Z score is on record as -0.69.
The like results for `Cc1cc(C(=O)NCc2cnn(C)c2C)nc(N2CCOCC2)n1` were, in that order, 34% and -1.09.
In the case of `Cc1ccc(-c2cc(C(=O)Nc3cccc4nsnc34)c3ccccc3n2)cc1C`, the “% Inhibition” value is given as 2% and the Z score is given as -0.23.
For `Cc1cc(C(=O)N(C)CCCC2CCCC2)cc(C)n1`, the “% Inhibition” value amounted to 13% and the Z score is -1.77.
The matching figures for `COc1cc(C#N)ccc1OCC=C(C)C`: 5% and -0.95.
As for `CC(C)c1noc(N2CC[C@H](N3CCCC3=O)C2)n1`, the “% Inhibition” value is 5% and the Z score is given as -0.75.
The like results for `N[C@H]1CCCCN(Cc2noc(-c3ccccc3)n2)C1` were, in that order, 1% and -0.14.
For the molecule `Cc1ccc(CNc2ccc(-c3nc(-c4ccccc4)no3)nn2)o1`, the “% Inhibition” value is on record as 12% and the Z score is given as -1.37.
For `Cc1nnc2n1CCN(C(=O)c1nccc3ccccc13)C2`, the “% Inhibition” value is recorded as -1% and the Z score was 0.13.

As usually defined, the % Inhibition is the drop in the measured response relative to a control, in per cent.
